# Data as given in paper PMC12820563.
# The other results are listed elsewhere or left out. The list includes weakly bound sequences.
# Molecular target: T1, MBP-FoxP3dN (UniProt Q99JB6)
# T1 sequence: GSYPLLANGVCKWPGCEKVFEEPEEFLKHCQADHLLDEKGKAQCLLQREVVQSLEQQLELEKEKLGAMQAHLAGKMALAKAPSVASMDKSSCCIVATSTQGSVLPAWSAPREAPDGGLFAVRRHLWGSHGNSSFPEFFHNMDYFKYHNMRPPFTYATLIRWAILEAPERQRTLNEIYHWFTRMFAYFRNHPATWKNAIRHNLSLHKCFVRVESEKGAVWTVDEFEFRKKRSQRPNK
# Experiment: PD-seq (MBP pull-down with sequencing)
# Details: 20 mM Tris-HCl pH 7.5, 100 mM NaCl, 1.5 mM MgCl2, 0.4 uM protein, 0.1 uM dsDNA library, 30 min, room temperature, amylose pull-down; high values mean tight binding; double strand, one strand shown
row,Sequence,binding signal (RPM ratio (pull-down/input))
1,GATGATTGTTCTCCCAGCTGATGAATTGGCTAACTCGAGTAAACAAATTTTCCTAATCTTTCTGTTCAAGCGCCATCTAC,0.307
2,GATGATTGTTCTCCCAGCTGATGAATTCGTGTAGTCGAGTAAACAAATTTTCCTAATCTTTCTGTTCAAGCGCCATCTAC,1.48
3,GATGATTGTTCTCCCAGCTGATGAATTTGGACGCTCGAGTAAACAAATTTTCCTAATCTTTCTGTTCAAGCGCCATCTAC,0.49
4,GATGATTGTTCTCCCAGCTGATGAATTTTAAACATCGAGTAAACAAATTTTCCTAATCTTTCTGTTCAAGCGCCATCTAC,0.476
5,GATGATTGTTCTCCCAGCTGATGAATTGGAAGTGTCGAGTAAACAAATTTTCCTAATCTTTCTGTTCAAGCGCCATCTAC,0.371
6,GATGATTGTTCTCCCAGCTGATGAATTTCTACATTCGAGTAAACAAATTTTCCTAATCTTTCTGTTCAAGCGCCATCTAC,0.295
7,GATGATTGTTCTCCCAGCTGATGAATTAGACACATCGAGTAAACAAATTTTCCTAATCTTTCTGTTCAAGCGCCATCTAC,0.667
8,GATGATTGTTCTCCCAGCTGATGAATTCATTTAATCGAGTAAACAAATTTTCCTAATCTTTCTGTTCAAGCGCCATCTAC,0.363
9,GATGATTGTTCTCCCAGCTGATGAATTACAGAGATCGAGTAAACAAATTTTCCTAATCTTTCTGTTCAAGCGCCATCTAC,0.326
10,GATGATTGTTCTCCCAGCTGATGAATTCTTATACTCGAGTAAACAAATTTTCCTAATCTTTCTGTTCAAGCGCCATCTAC,0.367
11,GATGATTGTTCTCCCAGCTGATGAATTTGGGCCGTCGAGTAAACAAATTTTCCTAATCTTTCTGTTCAAGCGCCATCTAC,0.513
12,GATGATTGTTCTCCCAGCTGATGAATTTTACCGGTCGAGTAAACAAATTTTCCTAATCTTTCTGTTCAAGCGCCATCTAC,0.201
13,GATGATTGTTCTCCCAGCTGATGAATTACAGCGCTCGAGTAAACAAATTTTCCTAATCTTTCTGTTCAAGCGCCATCTAC,0.408
14,GATGATTGTTCTCCCAGCTGATGAATTACGTTCATCGAGTAAACAAATTTTCCTAATCTTTCTGTTCAAGCGCCATCTAC,0.621
15,GATGATTGTTCTCCCAGCTGATGAATTCAAAGATTCGAGTAAACAAATTTTCCTAATCTTTCTGTTCAAGCGCCATCTAC,0.215
16,GATGATTGTTCTCCCAGCTGATGAATTAGTTCAGTCGAGTAAACAAATTTTCCTAATCTTTCTGTTCAAGCGCCATCTAC,0.347
17,GATGATTGTTCTCCCAGCTGATGAATTTTAGGTTTCGAGTAAACAAATTTTCCTAATCTTTCTGTTCAAGCGCCATCTAC,0.446
18,GATGATTGTTCTCCCAGCTGATGAATTGTCACTATCGAGTAAACAAATTTTCCTAATCTTTCTGTTCAAGCGCCATCTAC,0.768
19,GATGATTGTTCTCCCAGCTGATGAATTTCCGTATTCGAGTAAACAAATTTTCCTAATCTTTCTGTTCAAGCGCCATCTAC,1.21
20,GATGATTGTTCTCCCAGCTGATGAATTCCTATATTCGAGTAAACAAATTTTCCTAATCTTTCTGTTCAAGCGCCATCTAC,0.374
21,GATGATTGTTCTCCCAGCTGATGAATTCCTCATATCGAGTAAACAAATTTTCCTAATCTTTCTGTTCAAGCGCCATCTAC,0.342

row,Sequence,binding signal (RPM ratio (pull-down/input))
1,GATGATTGTTCTCCCAGCTGATGAATTCGCTTTATCGAGTAAACAAATTTTCCTAATCTTTCTGTTCAAGCGCCATCTAC,1.16
2,GATGATTGTTCTCCCAGCTGATGAATTGACAGTGTCGAGTAAACAAATTTTCCTAATCTTTCTGTTCAAGCGCCATCTAC,0.52
3,GATGATTGTTCTCCCAGCTGATGAATTGGAAATGTCGAGTAAACAAATTTTCCTAATCTTTCTGTTCAAGCGCCATCTAC,0.289
4,GATGATTGTTCTCCCAGCTGATGAATTCGTTTCCTCGAGTAAACAAATTTTCCTAATCTTTCTGTTCAAGCGCCATCTAC,1.76
5,GATGATTGTTCTCCCAGCTGATGAATTGACCATATCGAGTAAACAAATTTTCCTAATCTTTCTGTTCAAGCGCCATCTAC,0.44
6,GATGATTGTTCTCCCAGCTGATGAATTCTGACGATCGAGTAAACAAATTTTCCTAATCTTTCTGTTCAAGCGCCATCTAC,0.261
7,GATGATTGTTCTCCCAGCTGATGAATTTTTTTGTTCGAGTAAACAAATTTTCCTAATCTTTCTGTTCAAGCGCCATCTAC,0.472
8,GATGATTGTTCTCCCAGCTGATGAATTCGGTCAATCGAGTAAACAAATTTTCCTAATCTTTCTGTTCAAGCGCCATCTAC,0.25
9,GATGATTGTTCTCCCAGCTGATGAATTGCCGTGGTCGAGTAAACAAATTTTCCTAATCTTTCTGTTCAAGCGCCATCTAC,0.607
10,GATGATTGTTCTCCCAGCTGATGAATTTTAAATTTCGAGTAAACAAATTTTCCTAATCTTTCTGTTCAAGCGCCATCTAC,0.275
11,GATGATTGTTCTCCCAGCTGATGAATTTACTCCGTCGAGTAAACAAATTTTCCTAATCTTTCTGTTCAAGCGCCATCTAC,0.361
12,GATGATTGTTCTCCCAGCTGATGAATTGCGCCCATCGAGTAAACAAATTTTCCTAATCTTTCTGTTCAAGCGCCATCTAC,2.41
13,GATGATTGTTCTCCCAGCTGATGAATTACCAACTTCGAGTAAACAAATTTTCCTAATCTTTCTGTTCAAGCGCCATCTAC,0.502
14,GATGATTGTTCTCCCAGCTGATGAATTTCCTCGTTCGAGTAAACAAATTTTCCTAATCTTTCTGTTCAAGCGCCATCTAC,0.255
15,GATGATTGTTCTCCCAGCTGATGAATTCTGACTGTCGAGTAAACAAATTTTCCTAATCTTTCTGTTCAAGCGCCATCTAC,0.848
16,GATGATTGTTCTCCCAGCTGATGAATTCTAAAGATCGAGTAAACAAATTTTCCTAATCTTTCTGTTCAAGCGCCATCTAC,0.201
17,GATGATTGTTCTCCCAGCTGATGAATTACAGAGGTCGAGTAAACAAATTTTCCTAATCTTTCTGTTCAAGCGCCATCTAC,0.31
18,GATGATTGTTCTCCCAGCTGATGAATTTTTCCGGTCGAGTAAACAAATTTTCCTAATCTTTCTGTTCAAGCGCCATCTAC,0.15
19,GATGATTGTTCTCCCAGCTGATGAATTGCGCCTCTCGAGTAAACAAATTTTCCTAATCTTTCTGTTCAAGCGCCATCTAC,7.17
20,GATGATTGTTCTCCCAGCTGATGAATTAGCATCATCGAGTAAACAAATTTTCCTAATCTTTCTGTTCAAGCGCCATCTAC,4.09
21,GATGATTGTTCTCCCAGCTGATGAATTTCGTGTGTCGAGTAAACAAATTTTCCTAATCTTTCTGTTCAAGCGCCATCTAC,1.7

row,Sequence,binding signal (RPM ratio (pull-down/input))
1,GATGATTGTTCTCCCAGCTGATGAATTGAAGAAGTCGAGTAAACAAATTTTCCTAATCTTTCTGTTCAAGCGCCATCTAC,0.175
2,GATGATTGTTCTCCCAGCTGATGAATTGCTCTTCTCGAGTAAACAAATTTTCCTAATCTTTCTGTTCAAGCGCCATCTAC,0.552
3,GATGATTGTTCTCCCAGCTGATGAATTCTCCGAGTCGAGTAAACAAATTTTCCTAATCTTTCTGTTCAAGCGCCATCTAC,0.182
4,GATGATTGTTCTCCCAGCTGATGAATTCTCTAGTTCGAGTAAACAAATTTTCCTAATCTTTCTGTTCAAGCGCCATCTAC,0.293
5,GATGATTGTTCTCCCAGCTGATGAATTCGACGGCTCGAGTAAACAAATTTTCCTAATCTTTCTGTTCAAGCGCCATCTAC,0.282
6,GATGATTGTTCTCCCAGCTGATGAATTGAGTCTCTCGAGTAAACAAATTTTCCTAATCTTTCTGTTCAAGCGCCATCTAC,0.631
7,GATGATTGTTCTCCCAGCTGATGAATTAAGACCTTCGAGTAAACAAATTTTCCTAATCTTTCTGTTCAAGCGCCATCTAC,0.293
8,GATGATTGTTCTCCCAGCTGATGAATTCGTCCGCTCGAGTAAACAAATTTTCCTAATCTTTCTGTTCAAGCGCCATCTAC,0.348
9,GATGATTGTTCTCCCAGCTGATGAATTTCGGACCTCGAGTAAACAAATTTTCCTAATCTTTCTGTTCAAGCGCCATCTAC,0.273
10,GATGATTGTTCTCCCAGCTGATGAATTTACGCTGTCGAGTAAACAAATTTTCCTAATCTTTCTGTTCAAGCGCCATCTAC,0.665
11,GATGATTGTTCTCCCAGCTGATGAATTATCGGTCTCGAGTAAACAAATTTTCCTAATCTTTCTGTTCAAGCGCCATCTAC,0.382
12,GATGATTGTTCTCCCAGCTGATGAATTGTGCACATCGAGTAAACAAATTTTCCTAATCTTTCTGTTCAAGCGCCATCTAC,2.08
13,GATGATTGTTCTCCCAGCTGATGAATTACCTCTGTCGAGTAAACAAATTTTCCTAATCTTTCTGTTCAAGCGCCATCTAC,0.303
14,GATGATTGTTCTCCCAGCTGATGAATTCCAAGGGTCGAGTAAACAAATTTTCCTAATCTTTCTGTTCAAGCGCCATCTAC,0.189
15,GATGATTGTTCTCCCAGCTGATGAATTGTACAAATCGAGTAAACAAATTTTCCTAATCTTTCTGTTCAAGCGCCATCTAC,0.425
16,GATGATTGTTCTCCCAGCTGATGAATTTCATGTCTCGAGTAAACAAATTTTCCTAATCTTTCTGTTCAAGCGCCATCTAC,0.74
17,GATGATTGTTCTCCCAGCTGATGAATTACCGTCGTCGAGTAAACAAATTTTCCTAATCTTTCTGTTCAAGCGCCATCTAC,0.55
18,GATGATTGTTCTCCCAGCTGATGAATTCTTCAGCTCGAGTAAACAAATTTTCCTAATCTTTCTGTTCAAGCGCCATCTAC,0.192
19,GATGATTGTTCTCCCAGCTGATGAATTATATTTATCGAGTAAACAAATTTTCCTAATCTTTCTGTTCAAGCGCCATCTAC,5.59
20,GATGATTGTTCTCCCAGCTGATGAATTAACAGCCTCGAGTAAACAAATTTTCCTAATCTTTCTGTTCAAGCGCCATCTAC,0.491
21,GATGATTGTTCTCCCAGCTGATGAATTCGTGGAATCGAGTAAACAAATTTTCCTAATCTTTCTGTTCAAGCGCCATCTAC,0.26
